Laboratory results from PubChem BioAssay AID1030 (National Center for Advancing Translational Sciences (NCATS), 2008).
The campaign covered roughly 220,000 compounds. About 16,000 (7.3%) were called active. Inconclusive results, whose numbers are uncertain, are shown with a selection of clear calls. The call rests on the fitted dose curve; in most records, active means well fitted inhibition curve with a large enough effect (not every such curve was filed as active); inconclusive means small, poorly fitted or top-dose-only effect, or another doubt; inactive means no such curve, though single readings can be large or run the other way. No potency is given beside an inconclusive call; the fits are too rough.

Biological target: Aldehyde dehydrogenase 1A1 (Homo sapiens) (UniProt P00352)
Sequence of UniProt P00352 (P00352 whole entry, looked up): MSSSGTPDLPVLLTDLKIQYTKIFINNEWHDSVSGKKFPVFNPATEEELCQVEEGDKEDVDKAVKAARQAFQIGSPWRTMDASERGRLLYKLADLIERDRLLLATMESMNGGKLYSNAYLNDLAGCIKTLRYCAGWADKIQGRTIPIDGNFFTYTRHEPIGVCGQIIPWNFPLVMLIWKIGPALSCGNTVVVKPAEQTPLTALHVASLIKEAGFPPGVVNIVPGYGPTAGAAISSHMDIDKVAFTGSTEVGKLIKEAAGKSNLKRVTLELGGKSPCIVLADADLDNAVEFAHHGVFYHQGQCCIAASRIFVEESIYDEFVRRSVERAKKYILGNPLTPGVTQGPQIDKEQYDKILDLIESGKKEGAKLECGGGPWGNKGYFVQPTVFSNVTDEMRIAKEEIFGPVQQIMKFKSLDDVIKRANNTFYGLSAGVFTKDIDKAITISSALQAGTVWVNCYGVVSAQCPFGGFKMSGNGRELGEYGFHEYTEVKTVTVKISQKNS
Assay: qHTS Assay for Inhibitors of Aldehyde Dehydrogenase 1 (ALDH1A1)
Conditions: Purified ALDH1A1, NADH fluorescence, propionaldehyde substrate; series mostly up to 75.3 µM
Potency means the concentration at half of the fitted maximal effect; tags describe the fitted curve by direction and shape.

Compound | Potency
Oc1ccccc1/C=N/Nc1cc(N2CCCC2)nc(N2CCCC2)n1 | inactive
CCOC(=O)c1cc(C(C)C)sc1NC(=O)COC(=O)CCS(=O)(=O)c1ccccc1 | inconclusive [inhibitor, partial curve]
Cc1ccccc1NC(=O)c1nc2nccc(C)n2n1 | inconclusive [inhibitor, single point]
Cn1c(SCC(=O)N2CCN(C(=O)c3ccco3)CC2)nnc1-c1ccc(NS(C)(=O)=O)cc1 | inconclusive [inhibitor, single point]
Cc1ccc2nc(Cl)c3nnnn3c2c1 | active: 28.2 µM
Cc1nc(NS(=O)(=O)c2ccccc2)sc1C(C)(C)C | active: 5.01 µM
COc1ccc(/C=N/Nc2ncc(C(F)(F)F)cc2Cl)cc1OC | inconclusive [inhibitor, partial curve]
O=c1[nH]c(SCc2cccc(F)c2)nc2c1CCCC2 | inactive
O=C(c1cc2ccccc2cc1OCC(O)CN1CCCCC1)N1CCCCC1 (configuration not stated) | inconclusive [inhibitor, single point]
O=C1c2ccccc2NC(c2ccccn2)N1c1ccccc1F (configuration not stated) | inconclusive [inhibitor, partial curve]
CC(=O)c1ccc2noc(-c3ccc(F)cc3)c2c1 | inconclusive [inhibitor, single point]
O=C(NC(Cc1c[nH]c2ccccc12)C(=O)Nc1ccc(F)cc1)c1cccs1 (configuration not stated) | inconclusive [inhibitor, single point]
COc1ccc(-c2csc(/C(C#N)=C(\O)CSc3nccn3C)n2)cc1OC | active: 8.91 µM
CCn1c(/N=C/c2ccccc2NS(=O)(=O)c2ccc(C)cc2)nc2ccccc21 | inactive
O=C(COC(=O)c1ccc2c(=O)n3c(nc2c1)CCC3)Nc1ccccc1F | inactive
N#C[C@@H]1[C@@H]2C(=O)N(c3ccc4c(c3)OCCO4)C(=O)[C@@H]2C2c3ccccc3C=CN21 (some centres not stated) | inconclusive [inhibitor, single point]
CCC(C)(C)c1ccc(OCC(=O)N(C)C)c(C(C)(C)CC)c1 | inconclusive [inhibitor, single point]
Cc1ccc(-c2nc(C#N)c(NCCc3ccccn3)o2)cc1 | inconclusive [inhibitor, single point]
Cc1cc(C)c[n+](CC(=O)c2ccc(NC(=O)c3ccccc3)cc2)c1 | inactive
CCn1c(=N)n(CC(O)c2ccccc2)c2ccccc21 (configuration not stated) | inconclusive [inhibitor, single point]
O=C(NC12CC3CC(CC(C3)C1)C2)c1ccc(S(=O)(=O)N2CCOCC2)cc1 | inconclusive [inhibitor, single point]
N=c1n(CC(=O)c2ccc([N+](=O)[O-])cc2)c2ccccc2n1Cc1ccccc1 | inactive
CC(=O)Cc1nsc(NC(=O)c2cc(-c3ccccc3Cl)oc2C)n1 | inconclusive [inhibitor, partial curve, poor fit]
O=C(Nc1ccccc1)c1ccccc1C(=O)N1CCCCC1 | inactive

Compound | Potency
CC[C@@](N)(C(=O)O)c1ccc(C(=O)O)cc1 | inactive
O=C(CSc1cccc[n+]1[O-])Nc1ccccc1Oc1ccccc1 | active: 14.1 µM
O=Cc1ccc(N2CCCCCC2)cc1 | active: 0.0562 µM
CCOC(=O)N1CCN(C(=O)CSc2nnc(C3COc4ccccc4O3)o2)CC1 (configuration not stated) | active: 31.6 µM
C=CCn1c(-c2cc3c(s2)CCC(CC)C3)n[nH]c1=S (configuration not stated) | inconclusive [inhibitor, partial curve]
Cc1cc(NCCCn2ccnc2)n2nc(C)c(-c3ccc(Cl)cc3)c2n1 | inconclusive [inhibitor, partial curve]
COCC(C)NC(=O)c1cc(-c2ccc(O)cc2)on1 (configuration not stated) | inconclusive [inhibitor, single point]
COc1ccc(/C=C2\N=C3CCCCCN3C2=O)cc1 | inconclusive [inhibitor, single point]
O=C(CSc1nc2ccccc2c(=O)n1Cc1ccco1)NCCN1C(=O)CSC1=O | inconclusive [inhibitor, single point]
CCCCCCCCC(=O)NC(NC(=S)N1CCOCC1)C(Cl)(Cl)Cl (configuration not stated) | inconclusive [inhibitor, single point]
CCn1c2ccccc2c2c3ncc4cccn4c3ccc21 | inconclusive [inhibitor, partial curve]
CCOC(=O)c1[nH]c2ccc(OC)cc2c1NC(=O)C(C)N1CCSCC1 (configuration not stated) | inconclusive [inhibitor, partial curve]
Cc1ccc(NC(=O)CSc2nnc(-c3cccs3)o2)cc1S(=O)(=O)N(C)C | inconclusive [inhibitor, single point]
O=[N+]([O-])c1ccc(SCCc2ccncc2)cc1 | active: 7.94 µM
O=C(Cn1cnc([N+](=O)[O-])n1)N/N=C/c1cc(Cl)ccc1O | inactive
COc1ccc(C2=NCCc3cc(OC)c(OC)cc32)cc1OC | inactive
COc1ccc(C(=O)NC(=S)N2CCN(C)CC2)cc1Br | inactive
COc1ccc(C2C(C#N)=C(N)N(c3cccnc3)C3=C2C(=O)CCC3)cc1Cn1cc([N+](=O)[O-])cn1 (configuration not stated) | inconclusive [inhibitor, single point]
O=C(CN1C(=O)c2ccccc2S1(=O)=O)N1CCN(Cc2ccc3c(c2)OCO3)CC1 | inconclusive [inhibitor, single point]
CCc1c(C)sc(NC(=O)c2ccco2)c1C(=O)N1CCCCC1 | active: 25.1 µM
Cc1nn(-c2ccccc2)c2c1C(c1cccs1)C(C#N)=C(N)O2 (configuration not stated) | active: 11.2 µM
CCCCCn1c(=O)[nH]c2cc(C(=O)NCCCN3CCCCC3)ccc2c1=O | inconclusive [inhibitor, single point]
Cc1ccc(NC(=O)c2cc(N3C(=O)C=CC3=O)ccc2Cl)cc1C | active: 2.24 µM
